Measured values taken from paper PMC8770593 (Nature Communications, 2022).
Changes are numbered by the printed parent chain.

What was measured:
Assay in all cases: HTRF ligand-binding assay on whole transfected HEK293T/17 cells (QAPB saturation; competition with QAPB tracer)
[1] = molecular target: T1, α1BAR-α2C(L^45.52) chimera (V197^45.52→L) (Homo sapiens, UniProt P35368, V197L)
T1 sequence (P35368 35-520 V197L): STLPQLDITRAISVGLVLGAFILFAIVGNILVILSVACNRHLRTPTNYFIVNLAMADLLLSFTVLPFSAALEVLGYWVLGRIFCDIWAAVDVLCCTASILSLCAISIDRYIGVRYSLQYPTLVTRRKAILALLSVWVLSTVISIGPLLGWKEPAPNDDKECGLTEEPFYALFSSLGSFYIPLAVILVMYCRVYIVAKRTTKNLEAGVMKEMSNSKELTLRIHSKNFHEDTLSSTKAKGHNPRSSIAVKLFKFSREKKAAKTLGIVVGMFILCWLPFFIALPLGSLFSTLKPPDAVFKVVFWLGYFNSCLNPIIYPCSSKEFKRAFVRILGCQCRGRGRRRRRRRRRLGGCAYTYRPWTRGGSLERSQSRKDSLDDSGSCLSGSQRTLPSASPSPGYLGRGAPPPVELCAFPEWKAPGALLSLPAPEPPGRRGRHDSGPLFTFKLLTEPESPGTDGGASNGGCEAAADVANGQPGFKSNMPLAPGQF

[2] = molecular target: T2, α1BAR-α2C(YLLY;ECL2) chimera (Homo sapiens, UniProt P35368, A122L/DEL188-193/E186Y/E194Q/E199D/F202W/G179P/I178F/INS181VSLYRQP/K185A/L182D/L314Y/P201T/T198N/V197L/W121Y/W184A); conditions: saturation binding of QAPB
T2 sequence (P35368 with tags, fused parts or gaps W121Y/A122L/I178F/G179P/INS181VSLYRQP/L182D/W184A/K185A/E186Y/DEL188-193/E194Q/V197L/T198N/E199D/P201T/F202W/L314Y): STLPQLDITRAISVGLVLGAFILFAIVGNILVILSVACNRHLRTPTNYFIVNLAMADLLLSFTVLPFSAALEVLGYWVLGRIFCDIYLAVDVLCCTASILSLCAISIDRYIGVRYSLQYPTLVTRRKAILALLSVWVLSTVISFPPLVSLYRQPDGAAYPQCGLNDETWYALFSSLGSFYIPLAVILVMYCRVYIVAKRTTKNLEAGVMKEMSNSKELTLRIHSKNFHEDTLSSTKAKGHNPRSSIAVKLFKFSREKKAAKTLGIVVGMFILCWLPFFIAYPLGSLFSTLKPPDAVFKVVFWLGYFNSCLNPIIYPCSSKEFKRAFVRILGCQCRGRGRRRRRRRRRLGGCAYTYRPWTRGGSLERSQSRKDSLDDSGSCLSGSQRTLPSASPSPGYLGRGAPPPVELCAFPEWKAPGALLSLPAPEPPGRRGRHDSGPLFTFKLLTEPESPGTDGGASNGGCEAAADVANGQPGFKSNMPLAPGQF

[3] = molecular target: T3, wild-type α1BAR (Homo sapiens, UniProt P35368)
T3 sequence (P35368 35-520 limits assumed): T1 sequence (P35368 35-520 V197L) with L163V

[4] = molecular target: T4, α1BAR-α2C(YLLY;N^2.64) chimera (Homo sapiens, UniProt P35368, A122L/L105N/L314Y/V197L/W121Y); conditions: saturation binding of QAPB
T4 sequence (P35368 35-520 L105N/W121Y/A122L/V197L/L314Y): T1 sequence (P35368 35-520 V197L) with L71N, W87Y, A88L, L280Y

[5] = molecular target: T5, wild-type α2CAR (Homo sapiens, UniProt P18825); conditions: saturation binding of QAPB
T5 sequence (P18825 37-462 limits assumed): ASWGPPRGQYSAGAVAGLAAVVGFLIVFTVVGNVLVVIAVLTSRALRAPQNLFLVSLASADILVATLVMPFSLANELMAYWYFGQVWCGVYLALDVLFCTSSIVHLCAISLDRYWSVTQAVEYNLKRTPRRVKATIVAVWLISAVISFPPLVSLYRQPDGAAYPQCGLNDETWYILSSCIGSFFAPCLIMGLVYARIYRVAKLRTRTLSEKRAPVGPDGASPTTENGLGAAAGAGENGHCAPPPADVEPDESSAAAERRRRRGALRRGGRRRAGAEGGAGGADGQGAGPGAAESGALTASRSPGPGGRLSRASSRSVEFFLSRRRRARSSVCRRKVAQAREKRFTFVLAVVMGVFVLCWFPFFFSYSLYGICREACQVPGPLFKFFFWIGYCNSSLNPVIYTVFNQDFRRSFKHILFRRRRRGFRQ

[6] = molecular target: T6, α1BAR-α2C(YLLY) chimera (Homo sapiens, UniProt P35368, A122L/L314Y/V197L/W121Y)
T6 sequence (P35368 35-520 W121Y/A122L/V197L/L314Y): T1 sequence (P35368 35-520 V197L) with W87Y, A88L, L280Y

[7] = saturation binding of QAPB, whole cells

effect of the substitution on affinity ([1]; V197^45.52→L vs wild-type α1BAR): negligible | pKD (saturation binding) [1, 7]: 7.95 ± 0.016 | pKD (saturation binding) [2]: 6.16 ± 0.150 | higher affinity for wild-type α1BAR compared to α2CAR ([3]; ratio of affinities α1BAR vs α2CAR): ~ 20 fold | pKD (saturation binding) [3, 7]: 8.11 ± 0.050 | pKD (saturation binding) [4]: 6.06 ± 0.088 | pKD (saturation binding) [5]: 6.86 ± 0.035 | pKD (saturation binding) [6, 7]: 6.10 ± 0.100 | weaker affinity compared to wild-type α1BAR ([6]; α1BAR-α2C(YLLY) vs wild-type α1BAR): ~ 100 fold
Compound: COc1cc2nc(N3CCN(C(=O)CCC4=[N+]5C(=Cc6c(C)cc(C)n6[B-]5(F)F)C=C4)CC3)nc(N)c2cc1OC [QAPB]
